Among the data in the supplement of paper PMC9446081 are relative growth values, retold here.

Each structure is given as a SMILES string. In all, about 39,000 compounds went through this assay and about 220 (0.56%) showed activity. This is one part of the list.
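Note: static incubation at 37 °C against the wild-type strain, values averaged over two biological replicates.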

This assay concerns Escherichia coli K-12 BW25113. In words: relative growth (OD600 normalised to plate interquartile mean) (fraction); higher = less growth inhibition, active = 0.2 or less. The following applies: 50 µM; LB; incubation time: overnight (16-24 h).
As to `C[C@@H]1CN([C@@H](C)CO)C(=O)c2cc(NC(=O)CCCN(C)C)ccc2O[C@@H]1CN(C)Cc1ccccc1`, the relative growth is inactive: 0.996.

With `Cc1noc(C)c1NC(=O)Nc1ccc2c(c1)C(=O)N([C@@H](C)CO)C[C@@H](C)[C@@H](CN(C)C(=O)NC(C)C)O2`, the relative growth was inactive: 0.98.

In the case of `COc1ccc(NC(=O)Nc2cccc3c2O[C@H](CN(C)S(C)(=O)=O)[C@H](C)CN([C@@H](C)CO)C3=O)cc1`, the relative growth was inactive: 0.841.

Consider `C[C@@H]1CN([C@@H](C)CO)C(=O)Cc2cc(NS(=O)(=O)c3ccc(F)cc3)ccc2O[C@H]1CN(C)Cc1ccncc1`, for which the relative growth is inactive: 0.917.

With `C[C@H](CO)N1C[C@H](C)[C@H](CN(C)C(=O)c2ccccc2)Oc2cc(Br)ccc2S1(=O)=O`, the relative growth is inactive: 0.999.

Regarding `NCCc1cc2nc(-c3ccncc3)ccn2n1`, the relative growth is inactive: 0.945.

Consider `C[C@H](CO)N1C[C@H](C)[C@H](CN(C)C(=O)C2CCCCC2)OCCCC[C@H](C)Oc2ccc(NC(=O)NC3CCCCC3)cc2C1=O`, for which the relative growth is inactive: 0.99.

With `C[C@H]1CN([C@@H](C)CO)C(=O)c2cccc(NC(=O)Nc3ccc4c(c3)OCO4)c2O[C@@H]1CN(C)Cc1ccc(C(F)(F)F)cc1`, the relative growth was inactive: 0.868.

Turning to `COc1ccc(S(=O)(=O)Nc2cccc3c2O[C@@H](CN(C)C(=O)Nc2cccc4ccccc24)[C@@H](C)CN([C@H](C)CO)C3=O)cc1`, the relative growth is inactive: 1.01.

For `C[C@H](CO)N1C[C@H](C)[C@H](CN(C)C(=O)NC2CCCCC2)Oc2ccc(NC(=O)CCCN(C)C)cc2CC1=O`, the relative growth was inactive: 0.995.

Take `O=C(C[C@H]1C[C@H]2c3cc(NC(=O)Nc4ccc(C(F)(F)F)cc4)ccc3O[C@H]2[C@@H](CO)O1)NCc1cc(F)ccc1F`: the relative growth was inactive: 1.01.

With `C[C@H](CO)N1C[C@H](C)[C@@H](CN(C)C(=O)C2CCCCC2)Oc2cc(C#Cc3ccncc3)ccc2S1(=O)=O`, the relative growth is inactive: 0.991.

Consider `Cc1ccc(S(=O)(=O)N2C[C@H](O)COC[C@@H]3O[C@@H](CC(=O)NCCCN(C)C)CC[C@H]32)cc1`, for which the relative growth is inactive: 0.984.

In the case of `Cc1noc(C)c1NC(=O)Nc1ccc2c(c1)C(=O)N([C@@H](C)CO)C[C@@H](C)[C@H](CN(C)Cc1ccc(C(F)(F)F)cc1)O2`, the relative growth is inactive: 0.98.

For `Cl.NC(N)=NC(=O)Cc1c(Cl)cccc1Cl`, the relative growth was inactive: 1.02.

For the compound `C[C@@H]1CN([C@@H](C)CO)C(=O)CCCn2nncc2CO[C@@H]1CN(C)S(=O)(=O)c1ccc2c(c1)OCCCO2`, the relative growth was inactive: 0.98.

On to `O=C(C[C@@H]1C=C[C@H](NC(=O)CN2CCOCC2)[C@H](CO)O1)NCCc1ccncc1`, for which the relative growth was inactive: 0.97.
